# The other results are listed elsewhere or left out. Rule as the data show it: active = 3.2 or more and inactive = the rest. Only a few entries rise above the background.
# Target: SHP2 C-SH2 domain E139D
# Experiment: enrichment score (SH2-bound / input frequency) (ratio); bacterial display of known human phosphotyrosine sites (pTyr-Var adds point mutants) read by sequencing; higher = stronger binding; tyrosines were phosphorylated by kinases first
# Conditions: peptide library: Human pTyr
# 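Also: displayed peptides selected on beads carrying the immobilized SH2 domain, with library peptides lacking any tyrosine serving as negative controls.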
row,Binder,enrichment score
1,DSNSKKIYGSQPNFN [BMX_HUMAN_224],inactive: 0.976
2,ARIIDSEYTAQEGAK [BLK_HUMAN_389],inactive: 0.714
3,ARARVANYQRDGPMC [CAT_HUMAN_386_YA],inactive: 0.714
4,TSDMHRGYADSPSKA [CAP1_HUMAN_31],inactive: 0.755
5,TDSEEQPYLEMDLSS [CASP8_HUMAN_380],inactive: 1.15
6,SARIGDEYAEDSSDE [BOP1_HUMAN_122],inactive: 1.38
7,SHHSGLEYADPEKFA [CAV2_HUMAN_27],inactive: 0.678
8,AHGLLDPYNAFLSAV [CA2D3_HUMAN_924],inactive: 0.795
9,MLVSIDRYLALVKTM [BKRB2_HUMAN_156],inactive: 2.86
10,NANGEAVYCKFHAKT [CAT_HUMAN_231_YA],inactive: 1.22
11,GTKGGVSYRPAEVAE [CAH9_HUMAN_449],inactive: 0.889
12,KSKELPLYCSGGLRF [BECN1_HUMAN_352],inactive: 1.18
13,TNRTSQDYDQLPSCS [CBLB_HUMAN_889],inactive: 1.1
14,EHSDSEMYVMPAEEN [BLNK_HUMAN_84],inactive: 1.31
15,IAQGLRLYRPHLASE [BTK_HUMAN_617],inactive: 1.49
16,DSERDELYAQWGKGL [BUD13_HUMAN_494],inactive: 0.9
17,SQEVEVAYICSESSS [BLVRA_HUMAN_72],inactive: 0.817
18,GGMSGGKYVDSEGHL [CAV1_HUMAN_6],inactive: 0.804

# Target: SHP2 C-SH2 domain wild-type
# Experiment: as above
# Conditions: peptide library: Human pTyr
row,Binder,enrichment score
1,DSNSKKIYGSQPNFN [BMX_HUMAN_224],inactive: 0.959
2,ARIIDSEYTAQEGAK [BLK_HUMAN_389],inactive: 0.75
3,ARARVANYQRDGPMC [CAT_HUMAN_386_YA],inactive: 0.742
4,TSDMHRGYADSPSKA [CAP1_HUMAN_31],inactive: 0.464
5,TDSEEQPYLEMDLSS [CASP8_HUMAN_380],inactive: 0.838
6,SARIGDEYAEDSSDE [BOP1_HUMAN_122],inactive: 1.16
7,SHHSGLEYADPEKFA [CAV2_HUMAN_27],inactive: 0.723
8,AHGLLDPYNAFLSAV [CA2D3_HUMAN_924],inactive: 0.753
9,MLVSIDRYLALVKTM [BKRB2_HUMAN_156],inactive: 3.03
10,NANGEAVYCKFHAKT [CAT_HUMAN_231_YA],inactive: 0.947
11,GTKGGVSYRPAEVAE [CAH9_HUMAN_449],inactive: 0.62
12,KSKELPLYCSGGLRF [BECN1_HUMAN_352],inactive: 1.17
13,TNRTSQDYDQLPSCS [CBLB_HUMAN_889],inactive: 0.609
14,EHSDSEMYVMPAEEN [BLNK_HUMAN_84],inactive: 1.1
15,IAQGLRLYRPHLASE [BTK_HUMAN_617],inactive: 1.03
16,DSERDELYAQWGKGL [BUD13_HUMAN_494],inactive: 0.727
17,SQEVEVAYICSESSS [BLVRA_HUMAN_72],inactive: 0.76
18,GGMSGGKYVDSEGHL [CAV1_HUMAN_6],inactive: 0.468

# Target: SHP2 N-SH2 domain L43F
# Experiment: as above
# Conditions: peptide library: Human pTyr
row,Binder,enrichment score
1,DSNSKKIYGSQPNFN [BMX_HUMAN_224],inactive: 0.798
2,ARIIDSEYTAQEGAK [BLK_HUMAN_389],inactive: 0.74
3,ARARVANYQRDGPMC [CAT_HUMAN_386_YA],inactive: 0.719
4,TSDMHRGYADSPSKA [CAP1_HUMAN_31],inactive: 0.698
5,TDSEEQPYLEMDLSS [CASP8_HUMAN_380],inactive: 0.896
6,SARIGDEYAEDSSDE [BOP1_HUMAN_122],inactive: 1.2
7,SHHSGLEYADPEKFA [CAV2_HUMAN_27],inactive: 0.687
8,AHGLLDPYNAFLSAV [CA2D3_HUMAN_924],inactive: 0.756
9,MLVSIDRYLALVKTM [BKRB2_HUMAN_156],inactive: 2.57
10,NANGEAVYCKFHAKT [CAT_HUMAN_231_YA],inactive: 1.06
11,GTKGGVSYRPAEVAE [CAH9_HUMAN_449],inactive: 0.665
12,KSKELPLYCSGGLRF [BECN1_HUMAN_352],inactive: 1.23
13,TNRTSQDYDQLPSCS [CBLB_HUMAN_889],inactive: 0.631
14,EHSDSEMYVMPAEEN [BLNK_HUMAN_84],inactive: 0.809
15,IAQGLRLYRPHLASE [BTK_HUMAN_617],inactive: 1.29
16,DSERDELYAQWGKGL [BUD13_HUMAN_494],inactive: 0.645
17,SQEVEVAYICSESSS [BLVRA_HUMAN_72],inactive: 1.05
18,GGMSGGKYVDSEGHL [CAV1_HUMAN_6],inactive: 0.563

# Target: SHP2 N-SH2 domain T42A
# Experiment: as above
# Conditions: peptide library: Human pTyr
row,Binder,enrichment score
1,DSNSKKIYGSQPNFN [BMX_HUMAN_224],inactive: 0.817
2,ARIIDSEYTAQEGAK [BLK_HUMAN_389],inactive: 0.536
3,ARARVANYQRDGPMC [CAT_HUMAN_386_YA],inactive: 0.573
4,TSDMHRGYADSPSKA [CAP1_HUMAN_31],inactive: 0.771
5,TDSEEQPYLEMDLSS [CASP8_HUMAN_380],inactive: 0.981
6,SARIGDEYAEDSSDE [BOP1_HUMAN_122],inactive: 1.15
7,SHHSGLEYADPEKFA [CAV2_HUMAN_27],inactive: 0.719
8,AHGLLDPYNAFLSAV [CA2D3_HUMAN_924],inactive: 0.817
9,MLVSIDRYLALVKTM [BKRB2_HUMAN_156],inactive: 2.73
10,NANGEAVYCKFHAKT [CAT_HUMAN_231_YA],inactive: 0.922
11,GTKGGVSYRPAEVAE [CAH9_HUMAN_449],inactive: 0.826
12,KSKELPLYCSGGLRF [BECN1_HUMAN_352],inactive: 1.11
13,TNRTSQDYDQLPSCS [CBLB_HUMAN_889],inactive: 0.927
14,EHSDSEMYVMPAEEN [BLNK_HUMAN_84],inactive: 1.08
15,IAQGLRLYRPHLASE [BTK_HUMAN_617],inactive: 1.29
16,DSERDELYAQWGKGL [BUD13_HUMAN_494],inactive: 0.761
17,SQEVEVAYICSESSS [BLVRA_HUMAN_72],inactive: 1.03
18,GGMSGGKYVDSEGHL [CAV1_HUMAN_6],inactive: 0.746

# Target: SHP2 N-SH2 domain T52S
# Experiment: as above
# Conditions: peptide library: Human pTyr
row,Binder,enrichment score
1,DSNSKKIYGSQPNFN [BMX_HUMAN_224],inactive: 0.769
2,ARIIDSEYTAQEGAK [BLK_HUMAN_389],inactive: 0.616
3,ARARVANYQRDGPMC [CAT_HUMAN_386_YA],inactive: 0.659
4,TSDMHRGYADSPSKA [CAP1_HUMAN_31],inactive: 0.791
5,TDSEEQPYLEMDLSS [CASP8_HUMAN_380],inactive: 1.23
6,SARIGDEYAEDSSDE [BOP1_HUMAN_122],inactive: 1.53
7,SHHSGLEYADPEKFA [CAV2_HUMAN_27],inactive: 1.06
8,AHGLLDPYNAFLSAV [CA2D3_HUMAN_924],inactive: 0.816
9,MLVSIDRYLALVKTM [BKRB2_HUMAN_156],active: 3.22
10,NANGEAVYCKFHAKT [CAT_HUMAN_231_YA],inactive: 1.15
11,GTKGGVSYRPAEVAE [CAH9_HUMAN_449],inactive: 0.832
12,KSKELPLYCSGGLRF [BECN1_HUMAN_352],inactive: 1.43
13,TNRTSQDYDQLPSCS [CBLB_HUMAN_889],inactive: 0.956
14,EHSDSEMYVMPAEEN [BLNK_HUMAN_84],inactive: 1.01
15,IAQGLRLYRPHLASE [BTK_HUMAN_617],inactive: 1.71
16,DSERDELYAQWGKGL [BUD13_HUMAN_494],inactive: 0.839
17,SQEVEVAYICSESSS [BLVRA_HUMAN_72],inactive: 1.23
18,GGMSGGKYVDSEGHL [CAV1_HUMAN_6],inactive: 0.701

# Target: SHP2 N-SH2 domain wild-type
# Experiment: as above
# Conditions: peptide library: Human pTyr
row,Binder,enrichment score
1,DSNSKKIYGSQPNFN [BMX_HUMAN_224],inactive: 0.895
2,ARIIDSEYTAQEGAK [BLK_HUMAN_389],inactive: 0.455
3,ARARVANYQRDGPMC [CAT_HUMAN_386_YA],inactive: 0.858
4,TSDMHRGYADSPSKA [CAP1_HUMAN_31],inactive: 0.638
5,TDSEEQPYLEMDLSS [CASP8_HUMAN_380],inactive: 1.43
6,SARIGDEYAEDSSDE [BOP1_HUMAN_122],inactive: 1.79
7,SHHSGLEYADPEKFA [CAV2_HUMAN_27],inactive: 0.785
8,AHGLLDPYNAFLSAV [CA2D3_HUMAN_924],inactive: 0.739
9,MLVSIDRYLALVKTM [BKRB2_HUMAN_156],active: 3.59
10,NANGEAVYCKFHAKT [CAT_HUMAN_231_YA],inactive: 1.13
11,GTKGGVSYRPAEVAE [CAH9_HUMAN_449],inactive: 0.941
12,KSKELPLYCSGGLRF [BECN1_HUMAN_352],inactive: 1.31
13,TNRTSQDYDQLPSCS [CBLB_HUMAN_889],inactive: 0.759
14,EHSDSEMYVMPAEEN [BLNK_HUMAN_84],inactive: 1.21
15,IAQGLRLYRPHLASE [BTK_HUMAN_617],inactive: 1.87
16,DSERDELYAQWGKGL [BUD13_HUMAN_494],inactive: 0.735
17,SQEVEVAYICSESSS [BLVRA_HUMAN_72],inactive: 1.18
18,GGMSGGKYVDSEGHL [CAV1_HUMAN_6],inactive: 0.61
